Results: publication PMC7819943, “Rice protein-binding microarrays: a tool to detect cis-acting elements near promoter regions in rice”
Some of the results follow.

Target: T1, OsWOX13 (Oryza sativa, UniProt Q5QMM3 1-267)
T1 sequence: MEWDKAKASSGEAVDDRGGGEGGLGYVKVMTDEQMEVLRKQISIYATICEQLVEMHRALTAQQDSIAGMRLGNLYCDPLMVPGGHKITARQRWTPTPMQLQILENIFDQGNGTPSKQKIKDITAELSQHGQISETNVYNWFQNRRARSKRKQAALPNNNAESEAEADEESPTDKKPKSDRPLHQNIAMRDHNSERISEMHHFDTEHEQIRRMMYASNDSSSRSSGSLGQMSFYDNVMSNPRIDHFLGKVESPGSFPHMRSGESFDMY
Test: protein-binding microarray (RPBM); PBS, 2% BSA, 51.3 ng/ul salmon testes DNA, 50 uM zinc acetate, 200 nM TF, 25 C, 1 h; high values mean tight binding
Details: protein: recombinant; tags: N-terminal polyhistidine and DsRed monomer fusion (pET32a); label: CyDye5-dUTP incorporated in the synthesized complementary strand; 3' TTTTT single-stranded linker to array surface; dsDNA, one strand shown
Outline: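 For the binding signal, per-feature fluorescence intensity was read in arbitrary units on an Axon 4000B scanner. Before scanning, a 2% BSA-blocked custom Agilent array made double-stranded with Cy5-dUTP was washed after 1 h at 25 °C with 200 nM protein and 50 µM zinc acetate. The proteins were Ni–NTA-purified transcription factors with N-terminal polyhistidine and DsRed fusions, expressed in E. coli BL21-CodonPlus.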

Sequence	binding signal
TATATATATATATATATATATATATCGAAGCAAATTCCCACGGAGTCACCTAGTGCAG	29700 fluorescence intensity (a.u.)
TTTAATCAATTATGTTTAGTTAGTCTTTTAATTTCCGGCTCGGAGTCACCTAGTGCAG	28800 fluorescence intensity (a.u.)
CGATGGAGCAGCGGCGTCGTGTGGCCTTGGTTGCTTCGGACGGAGTCACCTAGTGCAG	6380 fluorescence intensity (a.u.)
GTAAATATATCATCAATCTAAATGATACCTACTGCATATACGGAGTCACCTAGTGCAG	10600 fluorescence intensity (a.u.)
ACACAGATTACGTGTAAATTGCGAGACAAATCTTTTAACCCGGAGTCACCTAGTGCAG	20500 fluorescence intensity (a.u.)
TTTGACTGAAAATTCTGAGTGTGCTTCCCCAGGTGTGGAGCGGAGTCACCTAGTGCAG	25800 fluorescence intensity (a.u.)
TTCTTTGTTGGATTGATGATCGCTTTTGTGTGGGAGAGGTCGGAGTCACCTAGTGCAG	4830 fluorescence intensity (a.u.)
ACATTAATATGAATATATCAATATAGATGTGGGAAGTGCTCGGAGTCACCTAGTGCAG	3220 fluorescence intensity (a.u.)
TCGGAAATTATGTATAGTTCGATGATACACATATCATTGACGGAGTCACCTAGTGCAG	5460 fluorescence intensity (a.u.)
AAGATCACATTTGATTGTGTGAGCCAAGTTTGGGAGGTCGCGGAGTCACCTAGTGCAG	5450 fluorescence intensity (a.u.)
TTCTCTAATTTATTAGAACGCCATATGACGACTTAGAAGCCGGAGTCACCTAGTGCAG	11600 fluorescence intensity (a.u.)
AAAATAATTATACCAATAGGAATGCCTTTATACCATCTTCCGGAGTCACCTAGTGCAG	9720 fluorescence intensity (a.u.)
TAGATTGCTATTTGTTGGAATATGATAGAGGTGGGGAAGGCGGAGTCACCTAGTGCAG	7210 fluorescence intensity (a.u.)
TTAAACAACATTAATCAACCTAATAACATGTTTTAGTTGCCGGAGTCACCTAGTGCAG	7890 fluorescence intensity (a.u.)
TCCCTCATTTGACAAATTATGGCAAACGTTTTGCAACTTCCGGAGTCACCTAGTGCAG	4630 fluorescence intensity (a.u.)
ACGTGATACATCTTGTTCTAGATTTGTTTAATTTAAGCCACGGAGTCACCTAGTGCAG	3240 fluorescence intensity (a.u.)
TAAACTTTTACTATCAATCATCTGAACCGTTTAATTTAAGCGGAGTCACCTAGTGCAG	14200 fluorescence intensity (a.u.)
ACTAATTTCATAACTTGTCTGGAAACAGCGAGATGAATTTCGGAGTCACCTAGTGCAG	5470 fluorescence intensity (a.u.)
TTTGATTTGGGAAAGATAATATATCTTGCTACTTTGTCTTCGGAGTCACCTAGTGCAG	18200 fluorescence intensity (a.u.)
CAAACTTTGATAGGGACCAAATGCGGCTTTACCACCTCCACGGAGTCACCTAGTGCAG	3560 fluorescence intensity (a.u.)
CCCTGTGTGATTTGAGATCAGTGTTTGTTTTCTTTGTATACGGAGTCACCTAGTGCAG	11700 fluorescence intensity (a.u.)

Sequence	binding signal
GGTTGAGGTTGATTAGATGCATCATATGATGCTTTGTCGGCGGAGTCACCTAGTGCAG	12600 fluorescence intensity (a.u.)
ATTTAAATTCAAATTTGAATCGAATATAATTCAAATTCAACGGAGTCACCTAGTGCAG	3340 fluorescence intensity (a.u.)
ACATACTGAATTTTAACTTAATTGAAAGGGTATAGAGAACCGGAGTCACCTAGTGCAG	32900 fluorescence intensity (a.u.)
CTAAACAGGCCTATGTTGTTCTCTCTTATGTGTAATTTGCCGGAGTCACCTAGTGCAG	3880 fluorescence intensity (a.u.)
CTATAGATTGGCTATCGTACATGAATGTTAATATATTTCTCGGAGTCACCTAGTGCAG	7920 fluorescence intensity (a.u.)
GTCTTGTGATCTTGATTGTGTAGAGGAAGAAATTACTATTCGGAGTCACCTAGTGCAG	3800 fluorescence intensity (a.u.)
CACCAATTACATTGTCAAACAGCAGGGCACCACAAGCAATCGGAGTCACCTAGTGCAG	11400 fluorescence intensity (a.u.)
GGAGCTAATAATTAATTAATAATGTACTAAAGGATTGCTCCGGAGTCACCTAGTGCAG	22400 fluorescence intensity (a.u.)
TCAATTAGAAATTAAACCGTGAGTTTCCCGGAATCGATCCCGGAGTCACCTAGTGCAG	4220 fluorescence intensity (a.u.)
GAAAATCTGTGGGAGGGGAGGGGAGGGGACGAGGGGACAGCGGAGTCACCTAGTGCAG	5600 fluorescence intensity (a.u.)
CTTGGTTTATTTTGATTTGCTGACTATAACACTTGATTCTCGGAGTCACCTAGTGCAG	4690 fluorescence intensity (a.u.)
ACATAATTAATCCTTATAATAATTTAGATGCATTTATAAACGGAGTCACCTAGTGCAG	20200 fluorescence intensity (a.u.)
ATTGATTTGATAAAACTAATTTAGTACTATAAATATTACTCGGAGTCACCTAGTGCAG	29400 fluorescence intensity (a.u.)
ATGAGCTAATTATATATGTTGATATTTGTTTCTATTATAACGGAGTCACCTAGTGCAG	5240 fluorescence intensity (a.u.)
GAGTGAAATGTCAATCAACCATGCAAGCACCTGAAGAGTTCGGAGTCACCTAGTGCAG	20200 fluorescence intensity (a.u.)
TTAATTAGCAATCGCCTATATAATCAGCTAGCGCAACAACCGGAGTCACCTAGTGCAG	23000 fluorescence intensity (a.u.)
GAGGTAATTCCTCCTTTAATTTGTGTAAACAAATCTCAGCCGGAGTCACCTAGTGCAG	14900 fluorescence intensity (a.u.)
ATTATGTTGGAAATTGATTAGTTGAAAAGAAACATCCAAACGGAGTCACCTAGTGCAG	23900 fluorescence intensity (a.u.)
TTCTTTTAACCGGCAATTATGAAAGCTAGATAAGAAAATGCGGAGTCACCTAGTGCAG	3350 fluorescence intensity (a.u.)
AATTGTAACTATAATTGTTTGAGTAGAATTGTAACTATGGCGGAGTCACCTAGTGCAG	10100 fluorescence intensity (a.u.)
GCAGTCCATTAACACGTGATTAATTAAGTATTAGTTAATTCGGAGTCACCTAGTGCAG	21800 fluorescence intensity (a.u.)

Sequence	binding signal
TTTACTAAGCAATCAAGATAACCTGATGTGCCTATCCATCCGGAGTCACCTAGTGCAG	10200 fluorescence intensity (a.u.)
CGGTGTTGATTTGTGGAGCTAAGGTCTCGCAAAGTTCTACCGGAGTCACCTAGTGCAG	11900 fluorescence intensity (a.u.)
TCAAACTGACTGGCACGCTCGCATCTCATCAATCGTTGGACGGAGTCACCTAGTGCAG	25100 fluorescence intensity (a.u.)
ATGTTAAATTAGTCTTAGTGCTTCCACCCTAGTAAACAACCGGAGTCACCTAGTGCAG	4320 fluorescence intensity (a.u.)
CAATCATTTACAGATTAGTTTACCGCATATCATTAGATGCCGGAGTCACCTAGTGCAG	6560 fluorescence intensity (a.u.)
GTTTGACCAGATGCTTTCAATTTCCTATGACTCATTTATTCGGAGTCACCTAGTGCAG	3280 fluorescence intensity (a.u.)
TGTACTGTGATAGACTGAGTTTACTAAACGAATGCATCATCGGAGTCACCTAGTGCAG	13100 fluorescence intensity (a.u.)
CGCATTAATGAGTCATCCTAACATACATATAAATCTACACCGGAGTCACCTAGTGCAG	5340 fluorescence intensity (a.u.)
GCGTTAATGACAATGACAGTTGGGCCCCATTGTATTGTTACGGAGTCACCTAGTGCAG	18300 fluorescence intensity (a.u.)
CTAGTTGCAGTATAAATTGACTACGAGTAGGGAGGAAGAGCGGAGTCACCTAGTGCAG	4300 fluorescence intensity (a.u.)
TTTAATTTCAAAGTAATGATATGCACTTGCTAGTGTAATGCGGAGTCACCTAGTGCAG	13500 fluorescence intensity (a.u.)
GGTTAATTTGACATAAACAGCGTCAGAAATGTAGTTCATGCGGAGTCACCTAGTGCAG	57900 fluorescence intensity (a.u.)
TTTTCACTAAATTCTGATGAAATTTCAAACGGAACTATTCCGGAGTCACCTAGTGCAG	3340 fluorescence intensity (a.u.)
TTGATTTTAATTAAAGTCAAAACATCTTATAACCTGAGGGCGGAGTCACCTAGTGCAG	48200 fluorescence intensity (a.u.)
AGAGTTAAACAAATAAATAAACTAAATGAATTCGTACCTTCGGAGTCACCTAGTGCAG	5610 fluorescence intensity (a.u.)
AAAGCTTAATTATTACTCCCTCCGTTTTAAAATGTTTGACCGGAGTCACCTAGTGCAG	12200 fluorescence intensity (a.u.)
TAGTAAATTTACCTGTCAAGACATGGCCAAGTGATTGGTACGGAGTCACCTAGTGCAG	28700 fluorescence intensity (a.u.)
GTATCTAGATTGGATACATCGAAACCATTTATATAAGTAACGGAGTCACCTAGTGCAG	13200 fluorescence intensity (a.u.)
TTATTAATTAAGCCTAATTAATCTGTTATTAGCAAATGTTCGGAGTCACCTAGTGCAG	51600 fluorescence intensity (a.u.)
TATATAATCCAATCTATCTCCATCCATCCCGATTCTTCTCCGGAGTCACCTAGTGCAG	5380 fluorescence intensity (a.u.)
ATTAGATTTACACGGCTTTATATATCTATGCGCCTCTTGTCGGAGTCACCTAGTGCAG	8310 fluorescence intensity (a.u.)

Sequence	binding signal
GACAAGTTGATAGAAAGCCTATGAACGTAAGCACTCCCTCCGGAGTCACCTAGTGCAG	4760 fluorescence intensity (a.u.)
ATGCAACCAATCAGTATTAAGATGACTCCTCAAGTTTAGTCGGAGTCACCTAGTGCAG	16400 fluorescence intensity (a.u.)
CGCTCTCCTAATTACCGCATTAACTCCCTTCCCTTCCCACCGGAGTCACCTAGTGCAG	19300 fluorescence intensity (a.u.)
TTTGACAAGTACGTGATTAATTATTTTGGCTTGAACTGTCCGGAGTCACCTAGTGCAG	34000 fluorescence intensity (a.u.)
TTGATTGATATTTTAAATTAACTTTATATACAAGCTAAAACGGAGTCACCTAGTGCAG	34400 fluorescence intensity (a.u.)
GACAACGGATTGGATGATGATAGAGAGGGGAAAGGGAGTACGGAGTCACCTAGTGCAG	12200 fluorescence intensity (a.u.)
AAGGGAATTAGTTAATTCACTTAATTGCCTCCTTATCCATCGGAGTCACCTAGTGCAG	18300 fluorescence intensity (a.u.)
TACTTAATTTTGTTAGTGTAATAATCTGTGGATCATGCGGCGGAGTCACCTAGTGCAG	25700 fluorescence intensity (a.u.)
ACTTTCTGTCAAGCGTCCGAATTACGGCGTCTCCTCGCCCCGGAGTCACCTAGTGCAG	3420 fluorescence intensity (a.u.)
GGTGGGACTGATTAGAAGTCAGAAGAACAGCTTCCTTCATCGGAGTCACCTAGTGCAG	19900 fluorescence intensity (a.u.)
ACCATCTGTCATGTCAAGATCATGACGTTTATTATATGATCGGAGTCACCTAGTGCAG	3780 fluorescence intensity (a.u.)
ATAATTAGCATCAGCACCATCTAGCCATGTATGCAAACCCCGGAGTCACCTAGTGCAG	8760 fluorescence intensity (a.u.)
TTGACGAGTAGAAATTAGTATTCACCTTAATATAACTCATCGGAGTCACCTAGTGCAG	6150 fluorescence intensity (a.u.)
TTAGTAATTAATTTATTATACGTTATTTCTAAAAGGTGCGCGGAGTCACCTAGTGCAG	31700 fluorescence intensity (a.u.)
TGACTTTGATTGAATTGATTAGCCTTTGTCGCAATGCATCCGGAGTCACCTAGTGCAG	41600 fluorescence intensity (a.u.)
TATATATATATATATATATATATATATATATATATAGACACGGAGTCACCTAGTGCAG	7880 fluorescence intensity (a.u.)
ATGTGATTATAGCTGATTTATAATCTGTATTATATATGTTCGGAGTCACCTAGTGCAG	44900 fluorescence intensity (a.u.)
TTATGTAATTATAATTTATTTTATTGTGACTTGATTTATCCGGAGTCACCTAGTGCAG	34000 fluorescence intensity (a.u.)
TCATCAAATCTGAATCTGAAATGAAGATTGAAGAACACCCCGGAGTCACCTAGTGCAG	3410 fluorescence intensity (a.u.)
AGACCTAAATGATACTAATGATACTGTTAGACAAGTTCTACGGAGTCACCTAGTGCAG	4470 fluorescence intensity (a.u.)
CTAATAATTAAGTTCACGAGCTCGAGCTCTAGTCATTGGTCGGAGTCACCTAGTGCAG	6660 fluorescence intensity (a.u.)
